Data published in PubChem BioAssay AID504832 (National Center for Advancing Translational Sciences (NCATS), 2011).
Hit rate of the full screen: of about 310,000 compounds, about 18,000 (5.8%) were called active. The shares of active, inactive and inconclusive entries below differ from those in the screen. Calls follow the shape of the dose curve; as a rule, active = well fitted inhibition curve with a large enough effect; inconclusive = small, poorly fitted or top-dose-only effect, or another doubt; inactive = no such curve, though single readings can be large or run the other way. No potency is given beside an inconclusive call; the fits are too rough.

Experiment: Primary qHTS for delayed death inhibitors of the malarial parasite plastid, 48 hour incubation
Conditions: P. falciparum luciferase growth in erythrocytes; series mostly up to 28.7 µM
How it was run: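 In quantitative HTS format, infected erythrocytes bearing luciferase-reporter parasites were treated for a single generation at 37 C. Luminescence after adding detection reagent served as the growth measure.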
Potency is read from the fitted curve at half-maximal effect; tags tell the direction and shape of the fitted curve.

**Q.** For `O=c1c2ccccc2nc(/C=C/c2cccnc2)n1Cc1ccccc1`, which Potency is on record?
**A.** inconclusive [inhibitor, partial curve]

**Q.** Which Potency does the source give for `CCOC(=O)c1c(CS(=O)(=O)c2ccccc2)n(C)c2cc(Br)c(O)c(CN(C)C)c12` here?
**A.** active: 9.28 µM

**Q.** With `COc1ccc(CN2C(=O)c3ccccc3C2=O)cc1` as the compound, how does the Potency read?
**A.** inconclusive [inhibitor, single point]

**Q.** Which Potency does the source give for `CN(C)S(=O)(=O)c1ccc(Cl)c(NC(=O)COC(=O)C2CSC3(C)CCC(=O)N23)c1` (centres undefined) here?
**A.** inactive

**Q.** Which Potency does the source give for `COc1ccc(C(=O)CN2C(=O)NC3(CCCc4ccccc43)C2=O)cc1OC` (centres undefined) here?
**A.** active: 8.28 µM

**Q.** For `CCOC(=O)CSC1=C(C#N)C(c2ccc(OC)cc2)C2=C(CC(C)(C)CC2=O)N1` (centres undefined), which Potency is on record?
**A.** inconclusive [inhibitor, single point]

**Q.** For `COC(=O)c1[nH]c2ccc(C)cc2c1NC(=O)CN1CCN(c2ccc(F)cc2)CC1`, which Potency is on record?
**A.** inconclusive [inhibitor, partial curve, poor fit]

**Q.** With `CCOC(=O)c1[nH]c2c(c1C)C(=O)CC(c1ccco1)C2` (centres undefined) as the compound, how does the Potency read?
**A.** active: 13.1 µM

**Q.** Which Potency does the source give for `CC(c1ccco1)N(C(=O)c1cccc(Br)c1)c1ccccn1` (centres undefined) here?
**A.** inactive

**Q.** Which Potency does the source give for `O=C(Nc1ccc(-c2nnc(-c3ccccc3)o2)cc1)C(F)(F)F` here?
**A.** inactive

**Q.** For `CCCCN1CNC(=S)N(CCc2ccc(OCC)c(OCC)c2)C1`, which Potency is on record?
**A.** inconclusive [inhibitor, partial curve, poor fit]

**Q.** With `Cc1ccc2c(c1)c1n[nH]c(=S)nc1n2CCc1ccccc1` as the compound, how does the Potency read?
**A.** inconclusive [inhibitor, single point]

**Q.** With `O=C1CC(C(=O)Nc2ccc(C(=O)N3CCOCC3)cc2)C2(CCCCC2)O1` (centres undefined) as the compound, how does the Potency read?
**A.** inactive

**Q.** With `O=C(CN(C(=O)Cn1nnc(-c2ccccc2F)n1)c1cnc2ccccc2c1)NCC1CCCO1` (centres undefined) as the compound, how does the Potency read?
**A.** active: 9.28 µM

**Q.** With `CCCC(=O)N1c2ccccc2C(=C2SC(C(=O)OC)=C(C(=O)OC)S2)C(=S)C1(C)C` as the compound, how does the Potency read?
**A.** inactive

**Q.** Which Potency does the source give for `C=CCN(c1ccccc1)S(=O)(=O)c1cccc(C(=O)Nc2nc3ccccc3[nH]2)c1` here?
**A.** inconclusive [inhibitor, single point]

**Q.** Which Potency does the source give for `Cc1ccc(N2C(=O)N3[C@H](c4ccc(F)cc4)[C@@H]4C(=O)N(C5CCCCC5)C(=O)[C@@H]4[C@]3(C)C2=O)cc1` here?
**A.** inactive

**Q.** For `CCOc1cc(C)c(C(C)C)cc1S(=O)(=O)n1cnc(C)c1`, which Potency is on record?
**A.** inconclusive [inhibitor, single point]

**Q.** With `COc1ccccc1N1CC(C(=O)Nc2nnc(SC)s2)CC1=O` (centres undefined) as the compound, how does the Potency read?
**A.** inconclusive [inhibitor, single point]

**Q.** Which Potency does the source give for `COc1ccccc1CNC(=O)[C@@H]1CCCN1C(=O)[C@@H]1Cc2ccccc2CN1C(=O)OC(C)(C)C` here?
**A.** inconclusive [inhibitor, single point]

**Q.** For `O=C(Cc1ccc(F)cc1)OCN1C(=O)c2ccccc2C1=O`, which Potency is on record?
**A.** inconclusive [inhibitor, partial curve]

**Q.** Which Potency does the source give for `COc1ccc(OC)c(-c2csc(N(C)C(=O)Cc3ccccc3)n2)c1` here?
**A.** inconclusive [inhibitor, single point]

**Q.** With `Cn1c(=O)c2c(nc(Br)n2Cc2c(F)cccc2Cl)n(C)c1=O` as the compound, how does the Potency read?
**A.** inconclusive [inhibitor, full curve]

**Q.** For `COc1ccc(C2CC(c3ccccc3)=NN2c2ccc(/C=N/NC(=O)c3ccncc3)cc2)cc1` (centres undefined), which Potency is on record?
**A.** inconclusive [inhibitor, partial curve, poor fit]

**Q.** With `O=C(Nc1ccc(F)cc1F)N1CCCCCC1` as the compound, how does the Potency read?
**A.** inactive

**Q.** For `CC(C)Nc1nc(NC(C)C)nc(N(C#N)CCOc2ccc(Cl)cc2Cl)n1`, which Potency is on record?
**A.** active: 10.4 µM

**Q.** Which Potency does the source give for `CCOC(=O)C1CCN(c2c(NCCCN(CC)Cc3ccccc3)c(=O)c2=O)CC1` here?
**A.** inconclusive [inhibitor, single point]

**Q.** With `N#C/C(=C\c1ccc(C#N)cc1)C(=O)c1ccccc1` as the compound, how does the Potency read?
**A.** inconclusive [inhibitor, partial curve, poor fit]

**Q.** For `CCCCn1nc2cc(C(=O)NC3CCc4ccccc43)ccc2c1OCC` (centres undefined), which Potency is on record?
**A.** inconclusive [inhibitor, single point]

**Q.** With `COc1ccc(-c2c[n+]3c(n2-c2ccccc2)CCCCC3)cc1` as the compound, how does the Potency read?
**A.** active: 1.04 µM

**Q.** For `Cn1c(-c2ccsc2)c(-c2cccs2)c2cc(Br)ccc21`, which Potency is on record?
**A.** inactive

**Q.** Which Potency does the source give for `COCCNC(=O)CSc1n[nH]c(=O)n1CCc1ccccc1` here?
**A.** inactive

**Q.** With `COc1ccc(C2/C=C\CN(Cc3ccco3)CC(=O)N2Cc2ccc(F)cc2)cc1` (centres undefined) as the compound, how does the Potency read?
**A.** inconclusive [inhibitor, single point]

**Q.** For `O=C(Nc1ccc(Br)cc1)C1CC(O)CN1C(=O)Oc1ccccc1` (centres undefined), which Potency is on record?
**A.** inconclusive [inhibitor, partial curve, poor fit]

**Q.** For `CCC(C)Nc1nc2c(c(=O)[nH]c(=O)n2C)n1CCOc1ccccc1` (centres undefined), which Potency is on record?
**A.** inconclusive [inhibitor, full curve, poor fit]

**Q.** With `COc1ccc(-c2noc(CC(=O)O)c2-c2ccc(OC)cc2)cc1` as the compound, how does the Potency read?
**A.** inconclusive [inhibitor]

**Q.** With `COc1cc(/C=N/N=C(/N)c2nonc2N)cc(Br)c1OCc1ccccc1C` as the compound, how does the Potency read?
**A.** inconclusive [inhibitor, single point]

**Q.** With `COc1ccc(-c2nc(N)c(C#N)c(-c3cccnc3)c2C)cc1` as the compound, how does the Potency read?
**A.** inconclusive [inhibitor, single point]

**Q.** With `O=C(NCCc1ccccc1)c1ccc(Cl)cc1[N+](=O)[O-]` as the compound, how does the Potency read?
**A.** inactive

**Q.** With `O=C(NCc1ccccn1)c1ccc(OC2CCN(Cc3ccc(Cl)s3)CC2)cc1` as the compound, how does the Potency read?
**A.** inconclusive [inhibitor, partial curve, poor fit]

**Q.** Which Potency does the source give for `CC(=O)NC1=NN(C(C)=O)C(C)(c2ccc(Cl)s2)S1` (centres undefined) here?
**A.** inconclusive [inhibitor, single point]

**Q.** For `Cn1c(=S)n(/N=C/c2ccc3c(c2)OCO3)c2ccccc21`, which Potency is on record?
**A.** inactive

**Q.** Which Potency does the source give for `Cc1ccc(C(=O)Nc2nnc(-c3ccncc3)o2)cc1` here?
**A.** inactive

**Q.** Which Potency does the source give for `Fc1cccc(CCN2CCNC[C@@H]2CC2CCCCC2)c1` here?
**A.** inconclusive [inhibitor, single point]
